# Reference: the supplement of paper PMC3334620
# Whole data set: some 33,000 sequences, median “E-score (-0.5 to 0.5)” near -0.016, cut for the highest 2% near 0.32. Some of the results follow.
# Biological target: T1, Stp1 (UniProt B3LFK1)
# T1 sequence: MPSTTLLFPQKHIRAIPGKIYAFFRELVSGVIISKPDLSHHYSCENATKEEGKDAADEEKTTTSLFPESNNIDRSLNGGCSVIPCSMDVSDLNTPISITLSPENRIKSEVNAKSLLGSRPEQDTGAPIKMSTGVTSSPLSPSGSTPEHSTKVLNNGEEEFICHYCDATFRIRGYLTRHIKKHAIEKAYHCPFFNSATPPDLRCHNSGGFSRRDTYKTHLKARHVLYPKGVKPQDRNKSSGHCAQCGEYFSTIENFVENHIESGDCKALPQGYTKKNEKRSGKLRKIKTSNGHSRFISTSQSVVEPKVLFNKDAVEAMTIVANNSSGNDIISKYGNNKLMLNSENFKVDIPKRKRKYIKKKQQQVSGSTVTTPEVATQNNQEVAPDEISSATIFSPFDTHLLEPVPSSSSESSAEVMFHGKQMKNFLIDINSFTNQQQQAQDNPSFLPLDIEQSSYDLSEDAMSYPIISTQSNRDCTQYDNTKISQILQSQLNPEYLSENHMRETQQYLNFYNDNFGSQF
# Assay: PBM E-score (8-mer binding enrichment) (E-score (-0.5 to 0.5)); higher = stronger / more preferred TF binding; most listed sequences are background and not binding sites
# Conditions: protein concentration: 200 nM; construct: GST-full length
# Outline: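 Using PURExpress in vitro transcription/translation, GST-tagged yeast transcription factors were made in full-length or DNA-binding-domain form. These were applied at about 100-200 nM to double-stranded universal all-10-mer Agilent arrays, and bound protein was detected with fluorescent anti-GST. Scans were normalised with masliner before the Universal PBM Analysis Suite assigned E-scores to ungapped eight-base words pooled with their reverse complements.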
row,Sequence,PBM E-score
1,AAGCCTCA,-0.0215
2,GTCGGCAA,0.0611
3,CCTGTTGC,-0.107
4,GGGTCTCA,-0.199
5,CAGCGCCC,0.188
6,CTAATTGC,0.0448
7,AATAGGCT,-0.0149
8,AAGACCCG,-0.0344
9,GGGATAAC,-0.265
10,CCGAGCGA,0.103
11,CAAATGCC,0.227
12,GGAGCTTA,-0.198
13,GGGCCTCA,-0.0568
14,ACTTTATC,-0.0288
15,GAACTCCC,-0.0954
16,CGATTTGA,0.0308
17,GGGTGGAC,-0.176
18,GACCCCGA,-0.197
19,AGCTGCAA,-0.0232
20,ACCGACTA,-0.17
21,GTCACGAC,-0.0607
22,ATAACCAC,-0.0312

row,Sequence,PBM E-score
1,CCCAACAG,-0.162
2,AAATCAGT,-0.00013
3,ATTGGAGC,0.0604
4,CGCCGTTA,0.381
5,GGTTCCCA,-0.174
6,GGAATGAC,-0.157
7,AAGTCACA,-0.0584
8,CAAACGCC,0.258
9,CAGACGAC,-0.28
10,ACGTTAGA,0.108
11,GTTTAACA,-0.0642
12,AGTACCTC,-0.0436
13,GTGCCTTA,0.367
14,CCTCCACA,-0.0389
15,CAAGTTGC,0.00105
16,GAACAGGA,-0.158
17,ATGTCTAA,0.0582
18,AGTGATAC,-6e-05
19,GATACGAC,0.0153
20,GGCTTCCC,-0.0604
21,AGGTCGAT,0.136
22,AAGAATCT,-0.0783

row,Sequence,PBM E-score
1,GGGCCAGA,-0.237
2,GACACCCA,-0.262
3,ACGTTCAT,-0.204
4,GATATCGA,0.0427
5,ATCCGCCA,-0.0958
6,GAACCAAC,-0.0803
7,GATCTCCA,-0.0306
8,ACTCTTAG,-0.0503
9,ATCGGCCG,0.15
10,CAATTAGG,0.104
11,CTCCAATA,0.118
12,ACAAAGGA,0.0216
13,AGACGTCG,-0.186
14,GACGGTAA,-0.0159
15,CACCTATA,-0.114
16,TACACTGA,-0.0513
17,GCCCTGAC,-0.0597
18,ACAGACTG,-0.204
19,ATGATTAA,0.222
20,TCACACGA,0.128
21,AGTATCGG,0.0387
22,ACATTCGT,-0.134

row,Sequence,PBM E-score
1,GAAGCGAA,-0.00767
2,AACGGGGT,-0.267
3,AGGGATCA,-0.15
4,ATTAATTC,0.3
5,AGCAACCC,-0.306
6,CACTGAGC,-0.0751
7,GTGAGAAC,-0.0964
8,CCCTCAAA,-0.0702
9,GTAAAGAC,0.0739
10,TAGCCGCA,0.348
11,GTCATGGA,-0.188
12,AAAGGACA,-0.0327
13,ACAAATGC,0.155
14,CGGAAACC,-0.275
15,AGAAAACA,0.12
16,TCCCAGCA,-0.159
17,ATTCATTA,0.254
18,CATTGTGG,-0.0605
19,GACCTCAC,0.00128
20,CATCGTTA,-0.161
